# Data taken from PubChem BioAssay AID1347055 (National Center for Advancing Translational Sciences (NCATS), 2019).
# Several values for one entry are separate records, joined by “and”; a condition that tells them apart may be missing. Equal values may be shown once. Out of some 54,000 compounds screened, about 120 (0.22%) were called active. Inconclusive means that the source gave no clear call. Such entries were picked first, then a sample of the others. The call rests on the fitted dose curve; in most records, active means well fitted inhibition curve with a large enough effect; inconclusive means small, poorly fitted or top-dose-only effect, or effect the other way; inactive means flat fitted curve, though single readings scatter. A potency beside an inconclusive call is a rough fit, not a confirmed value. More than one record can exist for a structure, and the calls need not agree.
# Target: Fumarate hydratase, mitochondrial (Homo sapiens) (UniProt P07954)
# UniProt P07954, sequence (P07954 whole entry, looked up): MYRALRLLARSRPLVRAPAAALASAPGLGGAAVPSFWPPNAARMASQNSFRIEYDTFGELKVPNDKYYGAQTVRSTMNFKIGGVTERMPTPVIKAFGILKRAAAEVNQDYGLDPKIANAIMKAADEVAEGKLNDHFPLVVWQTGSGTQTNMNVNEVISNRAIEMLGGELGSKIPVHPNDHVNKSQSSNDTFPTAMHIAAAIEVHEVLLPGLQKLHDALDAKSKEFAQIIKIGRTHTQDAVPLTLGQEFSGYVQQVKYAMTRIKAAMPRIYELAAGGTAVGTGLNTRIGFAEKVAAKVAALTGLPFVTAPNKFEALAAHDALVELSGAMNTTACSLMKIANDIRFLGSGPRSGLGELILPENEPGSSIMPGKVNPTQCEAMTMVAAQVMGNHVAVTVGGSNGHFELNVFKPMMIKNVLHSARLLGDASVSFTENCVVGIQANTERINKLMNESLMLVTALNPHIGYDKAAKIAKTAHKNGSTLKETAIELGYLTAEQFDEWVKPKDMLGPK
# Assay: Identification of activators of human fumarate hydratase by quantitative high-throughput screening; further: the screen sought activators but most active calls are inhibition curves; nearly all actives have a fitted effect of over 45% in size
# Conditions: FH coupled MDH/diaphorase resazurin fluorescence, 15 min; activity change, negative = inhibition: at 79.9 µM (top of the series)
# On the % scale 0 is the no-effect control and ±100 the full control effect; potency means the concentration at half of the fitted maximal effect; tags describe the fitted curve by direction and shape.
Structure (SMILES),Potency,"activity change, negative = inhibition"
O=C(NCCc1c[nH]c2ccc(O)cc12)c1ccc2ccccc2c1O,"inconclusive: 28.2 µM [inhibitor, partial curve]",
COc1cc(OC)cc(C(=O)Nc2nnc3n2CCS3)c1,"inconclusive: 35.5 µM [activator, partial curve]",
O=C(Nc1cccc(-c2nc3cccnc3s2)c1)c1cccc(Br)c1,"inconclusive: 28.2 µM [inhibitor, partial curve, poor fit]",
COc1ccc2c(Sc3ccc(Cl)cc3)c(C(=O)N3CCC(C)CC3)[nH]c2c1,"inconclusive: 31.6 µM [inhibitor, single point]",
Cc1ccc(S(=O)(=O)Nc2nc3ccccc3nc2Nc2ccc3nsnc3c2)cc1,"inconclusive: 31.6 µM [inhibitor, single point]",
COc1c2c(c(C)c3c1C(=O)OC3)OC1(C)CC(O)C34OC(O)(CCC3(C)C1C2)OC4(C)C (configuration not stated),"inconclusive: 3.29 µM [inhibitor, single point]",
CNC(=O)c1c(NC(=O)Cc2coc3ccc(C)cc23)sc2c1CCCC2,"inconclusive: 17.8 µM [inhibitor, partial curve, poor fit]",
CC(C)[C@@H]1C(=O)N(S(C)(=O)=O)[C@@H]2CCN(C(=O)/C=C/CN3CCCCC3)[C@H]21,inactive,
CC(=O)O[C@H]1[C@@]2(O)C[C@H](C)[C@H](OC(=O)c3ccccc3)[C@@H]2[C@@H](OC(=O)CO)[C@]2(OC(C)=O)C[C@H]3C(=O)C(C)(C)C[C@@H]3[C@@]1(C)[C@H]2OC(C)=O,inactive,
Cc1nc2c(C(=O)NCc3ccccc3Cl)cnn2c(C)c1Cc1ccccc1,"inconclusive: 22.4 µM [inhibitor, partial curve]",
Cc1ccc(CN2CCCn3nc(C(=O)NCc4cc(C)ccc4C)cc3C2=O)cc1,inactive,
CCOC(=O)c1cc(-c2ccccc2)n(CCC(=O)Nc2cc(C)cc(C)c2)c1C,"inconclusive: 31.6 µM [inhibitor, single point]",
COc1cc(OC)c(NC(=O)C(NS(=O)(=O)c2cccc3nsnc23)c2ccccc2)cc1Cl (configuration not stated),"inconclusive: 12.6 µM [inhibitor, partial curve, poor fit]",
Cc1cc(C)c(NC(=O)CN2c3ccccc3S(=O)(=O)c3ccccc32)c(C)c1,"inconclusive: 3.16 µM [inhibitor, partial curve, poor fit]",
Cc1ccc(C(=O)Nc2ccccc2C(=O)O)cc1S(=O)(=O)N1CCCCCC1,"inconclusive: 31.6 µM [inhibitor, partial curve, poor fit]",
CCn1cc2nc(SCC(=O)Nc3ccccc3F)n(Cc3ccc(C)cc3)c(=O)c2n1,"inconclusive: 31.6 µM [inhibitor, single point]",
Cc1ccc(CNC(=O)Nc2cn(CC(C)C)c(=O)c3ccccc23)cc1,"inconclusive: 31.6 µM [activator, single point]",
Cc1ccc(C)c(-c2nnc(NC(=O)c3ccc4c(c3)OCCO4)o2)c1,inactive,
COc1cccc(-n2cc(C(=O)Nc3cc(OC)c(OC)c(OC)c3)c3ccccc3c2=O)c1,"inconclusive: 44.7 µM [inhibitor, partial curve, poor fit]",
Cc1nnc(SCc2ccccc2Cl)c2cc3occc3n12,"inconclusive: 35.5 µM [inhibitor, single point]",
Cc1cccc2sc(N(Cc3cccnc3)C(=O)Cc3ccccc3)nc12,,inconclusive: -38.4% [inhibitor]
COc1ccc2c(CNCc3cccs3)c(C(=O)O)n(Cc3ccc(F)cc3Cl)c2c1,"inconclusive: 39.8 µM [inhibitor, partial curve]",
COc1cc(Cl)c(C)cc1Nc1c2c(nc3ccccc13)CCC2,inactive,

Structure (SMILES),Potency,"activity change, negative = inhibition"
Cn1c(=O)c(=O)n(C)c2cc(N3CCCC3)c(NC(=O)c3ccc(C(C)(C)C)cc3)cc21,"inconclusive: 35.5 µM [inhibitor, partial curve]",
COc1cccc(-c2nnc3n(CCc4ccccc4)c(=O)c4ccccc4n23)c1O,"inconclusive: 31.6 µM [inhibitor, single point]",
COc1ccc(CNc2oc(COc3cccc(C)c3)nc2C#N)cc1,"inconclusive: 6.31 µM [inhibitor, single point]",
Cc1ccc2c(=O)cc(C(=O)Nc3ccc(S(=O)(=O)Nc4onc(C)c4C)cc3)oc2c1,"inconclusive: 39.8 µM [inhibitor, single point]",
CCCN(C(=O)Cc1c(C(=O)O)[nH]c2ccc(Cl)cc12)c1ccc(OCC)cc1,inactive,
COc1cccc(CNC(=O)Cn2c(SCC(=O)Nc3ccc(F)cc3)nc3ccccc32)c1,inactive,
CNCC(O)c1ccc(O)c(O)c1 (configuration not stated),active: 6.92 µM,
c1cc(CN2CCCCC2)cc(OCCCNc2nc3ccccc3s2)c1,"inconclusive: 35.5 µM [inhibitor, partial curve, poor fit]",
CC(=O)O[C@H]1C[C@@](O)(C(C)C)C2[C@@H](OC(=O)c3ccc(O)cc3)C[C@@]3(C)O[C@H]3C[C@]21C (some centres not stated),inactive,
CCN(CCCNC(=O)c1cc2c(=O)[nH]c3ccc(C)cc3c2s1)Cc1ccccc1,"inconclusive: 35.5 µM [inhibitor, partial curve, poor fit]",
COc1ccc(OC)c(NC(=O)CCc2c(C)nc3c(-c4ccccc4)c(C)nn3c2C)c1,"inconclusive: 31.6 µM [inhibitor, partial curve, poor fit]",
CC1OC(OC2C(CO)OC(OCC3OC(OC(=O)C45CCC(C)(C)CC4C4=CCC6C7(C)CCC(OC8OC(CO)C(O)C(OC9OC(CO)C(O)C(O)C9O)C8O)C(C)(C)C7CCC6(C)C4(C)CC5)C(O)C(O)C3O)C(O)C2O)C(O)C(O)C1OC1OC(CO)C(O)C(O)C1O (configuration not stated),,inactive: 7.65% [at 13.5 µM]
Cc1ccc(C)c(CN2C(=O)c3ccccc3Sc3ccc(C(=O)NCCCOC(C)C)cc32)c1,"inconclusive: 28.2 µM [inhibitor, single point]",
O=C(CSc1n[nH]c(-c2ccccc2Cl)n1)N1CCN(c2ccc(F)cc2)CC1,"inconclusive: 28.2 µM [inhibitor, partial curve, poor fit]",
CC(=O)Nc1ccc2nc(SCc3ccccc3)sc2c1,"inconclusive: 35.5 µM [inhibitor, partial curve, poor fit]",
CCCCCCCCCCCCCCCCOCCCOP(=O)(O)COC(CO)Cn1ccc(N)nc1=O (configuration not stated),inactive,
COc1ccccc1/C=C/c1nc(C#N)c(NC(C)c2ccccc2)o1 (configuration not stated),"inconclusive: 35.5 µM [inhibitor, single point]",
CCCN(C(=O)c1nn(-c2ccc(C)cc2)c(=O)c2c1c1ccccc1n2C)c1ccccc1C,"inconclusive: 50.1 µM [inhibitor, single point]",
C[C@](Cc1ccc(O)c(O)c1)(NN)C(=O)O,"inconclusive: 39.8 µM [inhibitor, single point]",
O=C(Nc1ccc(Oc2ccccc2)cc1)C1CCN(S(=O)(=O)c2ccccc2)CC1,"inconclusive: 44.7 µM [inhibitor, single point]",
CCOc1ccc(-c2cc(C(=O)N3CCN(c4ccc(C)cc4)C(C)C3)c3ccccc3n2)cc1 (configuration not stated),inactive,
Cc1ccccc1CSc1cn(CC(=O)N2CCCC2)c2ccccc12,"inconclusive: 39.8 µM [inhibitor, partial curve, poor fit]",
Clc1ccc(-c2nc3ccccn3c2Nc2ccc3c(c2)OCCO3)s1,"inconclusive: 35.5 µM [inhibitor, partial curve, poor fit]",

Structure (SMILES),Potency,"activity change, negative = inhibition"
CCOc1ccc(CCNC(=O)c2cc3c(=O)n(C)c4ccccc4c3n2C)cc1,"inconclusive: 50.1 µM [inhibitor, single point]",
O=c1[nH]c2ccc(NCc3ccccc3F)cc2[nH]1,"inconclusive: 11.2 µM [inhibitor, partial curve]",
CSc1cccc(NC(=O)C(c2ccccc2)N2Cc3ccccc3C2=O)c1 (configuration not stated),,inconclusive: -31.3% [inhibitor]
Cc1ccc(Nc2c(-c3ccccc3O)nc3cc(C)ccn23)cc1,inactive,
CN[C@H]1CC[C@@H](c2ccc(Cl)c(Cl)c2)c2ccccc21,"inactive and inconclusive: 22.4 µM [inhibitor, partial curve, poor fit]",
COc1ccc(-c2cc3nc(C)c(CCC(=O)N4CCN(c5cc(C)ccc5C)CC4)c(C)n3n2)c(OC)c1,"inconclusive: 25.1 µM [inhibitor, partial curve, poor fit]",
Cc1ccc(C)c(NC(=O)CSc2ncc3c(n2)-c2cc(Cl)ccc2N(Cc2ccccc2F)S3(=O)=O)c1,"inconclusive: 8.91 µM [inhibitor, single point]",
O=C(O)c1cccc(-c2noc(-c3ccccc3F)n2)c1,inactive,
Cc1cccc(CSc2nc3cccnc3n2Cc2ccc(C(=O)NCc3ccco3)cc2)c1,"inconclusive: 35.5 µM [inhibitor, single point]",
Cc1cccc(C)c1OCCn1c(C2CC(=O)N(Cc3ccc(F)cc3)C2)nc2ccccc21 (configuration not stated),"inconclusive: 28.2 µM [inhibitor, partial curve, poor fit]",
CCN(CC)c1ccc(NS(=O)(=O)c2ccc(-c3coc(C)n3)cc2)c(C)c1,"inconclusive: 20 µM [inhibitor, partial curve]",
Cc1ccc(Oc2nc3ccccn3c(=O)c2/C=C(\C#N)c2nc3ccccc3s2)c(C)c1,"inconclusive: 17.8 µM [inhibitor, partial curve]",
COc1ccc(/C=C/C(=O)Nc2ccc3nc(N4CCCCC4)cc(C)c3c2)cc1OC,"inconclusive: 28.2 µM [inhibitor, single point]",
Cc1ccccc1-c1noc(-c2cc(-c3ccc(F)cc3)n[nH]2)n1,"inconclusive: 11.2 µM [inhibitor, partial curve, poor fit]",
CC(=O)N1CCCc2cc(S(=O)(=O)N3CCN(c4cccc(C(F)(F)F)c4)CC3)ccc21,"inconclusive: 44.7 µM [inhibitor, partial curve, poor fit]",
Cc1ccc(-c2cc(C(F)(F)F)nn2-c2ccc(S(N)(=O)=O)cc2)cc1,"inconclusive: 39.8 µM [inhibitor, single point]",
COc1ccc(C2c3[nH]c4ccc(OC)cc4c3CCN2C(=O)Nc2ccccc2)cc1 (configuration not stated),"inconclusive: 31.6 µM [inhibitor, partial curve]",
Cc1ccc(-c2nc3ccccn3c2Nc2ccc3c(c2)OCO3)o1,"inconclusive: 35.5 µM [inhibitor, partial curve, poor fit]",
O=C(Nc1ccc(S(=O)(=O)Nc2nccs2)cc1)c1cc(-c2ccccc2)nc2ccccc12,"inconclusive: 35.5 µM [inhibitor, single point]",
CCOc1ccc(NC(=O)Cn2cc(S(=O)(=O)N3CCN(c4ccccc4F)CC3)c3ccccc3c2=O)cc1,"inconclusive: 25.1 µM [inhibitor, partial curve, poor fit]",
CCCCNc1nc2c(c(=O)n(Cc3ccc(Cl)c(Cl)c3)c(=O)n2C)n1C,"inconclusive: 35.5 µM [inhibitor, single point]",
